Measurements: PubChem BioAssay AID463173 (ICCB-Longwood Screening Facility, Harvard Medical School, 2010)
Hit rate of the full screen: of about 52,000 compounds, about 4,300 (8.3%) were called active. Rule as the data show it: active = survival mostly below about 52% (no sharp cut-off); inactive = mostly above about 56%. The list shows a part of the results.

System: DeltatarO mutant
Assay: growth inhibition of S. aureus wild type versus tarO mutant, primary screen, teichoic acid synthesis inhibitors, RN4220, OD600 (AID 463173)
Details: OD600, 18 h, active compounds read low, screened at 18.75 µg/mL (by protocol)

Structure (SMILES) | survival
CCOC(=O)c1c(C)oc2nc(C)nc(N(C)Cc3ccccc3)c12 | inactive: 99%
CCOc1ccc(C(=O)c2cn(Cc3cccc(OC)c3)c3cc4c(cc3c2=O)OCO4)cc1 | inactive: 72%
Cc1ccc(S(=O)(=O)N2CCCC2C(=O)Nc2ccc(Br)cc2)cc1 (stereo unspecified) | inactive: 102%
O=C(CSc1ncc(-c2ccc(Cl)cc2)[nH]1)Nc1ccccc1F | inactive: 61%
O=C(C1CCCN(S(=O)(=O)c2cccc3nonc23)C1)N1CCN(c2cccc(C(F)(F)F)c2)CC1 (stereo unspecified) | inactive: 67%
CCc1cc2cc3c(cc2nc1SCC(=O)N1CCCCC1)OCO3 | inactive: 99%
CCOC(=O)CNC(=O)Nc1cc(C(=O)NCc2ccc(C(C)C)cc2)ccc1N1CCCC1 | inactive: 93%
Cc1ccc2[nH]c(=O)c3cc(C(=O)NCc4cccc(Cl)c4)sc3c2c1 | inactive: 70%
O=C(c1ccco1)N1CCN(C2c3cccc4cccc(c34)C2NS(=O)(=O)c2ccccc2)CC1 (stereo unspecified) | inactive: 73%
COc1ccccc1-c1noc(CSc2nnc(-c3ccccc3)n2-c2ccc(C)c(C)c2)n1 | inactive: 77%
Cc1cc(C)c(/C=C/c2onc(C)c2S(=O)(=O)N2CCC(C(=O)Nc3cccc(C)c3C)CC2)c(C)c1 | inactive: 99%
CCOC(=O)c1c(C)oc2c1cc(NS(=O)(=O)c1ccc(C)cc1)c1ccccc12 | inactive: 56%
CCSc1nc2ccccc2c(=O)n1CCOC | inactive: 99%
O=C(NC1CC(=O)N(c2ccc(Cl)cc2)C1)C1CCCC1 (stereo unspecified) | inactive: 78%
O=C(Nc1cccnc1N1CCOCC1)c1cc2ccccc2oc1=O | inactive: 79%
CCC(C)NC(=O)c1ccc2c(c1)nc1n2CCCCC1 (stereo unspecified) | inactive: 81%
CCOc1ccc(NC(=O)CSc2nc3c([nH]c4ccccc43)c(=O)n2-c2cc(C)cc(C)c2)cc1 | inactive: 89%
COC(=O)c1cc2c(ccn2-c2ccc(F)cc2)n1C(C)C | inactive: 87%
O=C(COc1cccc(Cl)c1)N1CCC(c2nc3ccccc3o2)CC1 | inactive: 71%
CCOC(=O)c1c(C)oc2ccc(OCC(N)=O)cc12 | inactive: 100%
Cc1cccc(N2CCN(C(=O)c3cnc4c(C)cccn4c3=O)CC2C)c1 (stereo unspecified) | active: 32%
O=C(NCc1ccccc1Cl)C1CCCN(C(=O)c2cnn(-c3ccc(F)cc3)c2-n2cccc2)C1 (stereo unspecified) | inactive: 67%
Cc1nc2c(-c3ccccc3)c(C)nn2c(C)c1CCC(=O)NCCc1ccccc1 | inactive: 86%

Structure (SMILES) | survival
CC(C)c1ccc(NC(=O)N2CCN(c3ccc(Cl)c(Cl)c3)CC2)cc1 | inactive: 87%
CCN1CCc2c(sc(-n3cccc3)c2C(C)NC(=O)Nc2cc(Cl)c(OC)cc2OC)C1 (stereo unspecified) | inactive: 96%
Cc1ccc(NC(=O)c2cc(S(=O)(=O)N3CCCCCC3)ccc2F)cc1F | inactive: 144%
Cc1sc2c(c1C)c(=O)n(Cc1ccccc1)c(=O)n2CC(=O)N(C)c1ccccc1 | inactive: 97%
CCCNC(=O)c1cnn2c(C(F)F)cc(-c3ccccc3)nc12 | inactive: 58%
CC(C)Oc1ccc(NC(=O)c2cc3ccccc3o2)cc1 | active: 40%
CC1(C)CC(=O)c2cc(-c3nc(-c4ccc(Cl)cc4)cs3)c(=O)[nH]c2C1 | inactive: 86%
CCC(=O)N1c2ccccc2C(C)(c2ccccc2)CC1(C)C (stereo unspecified) | active: -8%
CN1CCN(C(=O)c2ccc3c(c2)N(Cc2ccc(F)cc2)C(=O)c2ccccc2S3=O)CC1 (stereo unspecified) | inactive: 91%
CC(C)(C)OC(=O)N1CCC(c2c(C(=O)NCc3ccccc3)cnn2-c2ccc(F)cc2)CC1 | inactive: 128%
CCOc1ccccc1NC(=O)c1cc(S(=O)(=O)N2CCOCC2)cn1C | inactive: 71%
O=C(CSc1nc(-c2ccccc2)no1)N1CCN(c2ccccc2)CC1 | inactive: 99%
C=CCNc1nc(N2CCCCC2)nc(N2CCCCC2)n1 | inactive: 79%
O=C(c1cccn1-c1nnc(N2CCCCC2)s1)N1CCN(c2ccc(Cl)cc2)CC1 | inactive: 69%
COc1ccc(CCNc2nc3ccc(C)cc3n3cnnc23)cc1OC | inactive: 92%
CCOC(=O)CSc1nc(-c2ccc(F)cc2)cc(C(F)(F)F)c1C#N | inactive: 73%
CCc1ccccc1N1CC(c2nc3ccccc3n2CCOc2ccc(Cl)c(C)c2)CC1=O (stereo unspecified) | active: 3%
Cc1ccn2cc(-c3cccc(NC(=O)CCC(=O)O)c3)nc2c1 | inactive: 75%
CCNc1nc(NC(C)(C)C)nc(Oc2ccc(=O)n(-c3ccccc3)n2)n1 | inactive: 60%
CCn1c(C(=O)N2CCC(C(=O)N3CCN(c4ccc(OC)cc4)CC3)CC2)cc2sccc21 | active: 49%
COc1ccc(Cl)cc1N=C1NC(=O)CC(C(=O)Nc2ccccc2C(F)(F)F)S1 (stereo unspecified) | inactive: 69%
Cc1cc(C)cc(NC(=O)C(CC(C)C)NC(=O)C2CCCCC2)c1 (stereo unspecified) | inactive: 71%
CN(C)c1ccc(C(=O)Nc2c(C(=O)NC(C)(C)C)oc3ccccc23)cc1 | inactive: 57%

Structure (SMILES) | survival
CC(C)Oc1ccc(CNC(=O)c2ccc3nc(C(C)C)oc3c2)cc1 | inactive: 113%
COc1ccc(-c2nc(Cn3c(=O)cc(-c4ccccc4)c4c(C)nn(C)c43)c(C)o2)cc1OC | inactive: 73%
CC1CCN(S(=O)(=O)c2ccc3c(ccc(=O)n3CC(=O)NCc3ccc(Cl)cc3)c2)CC1 | inactive: 75%
CC(=O)c1cccc(NC(=O)CCc2nc3cccnc3n2Cc2cccs2)c1 | inactive: 70%
CC(=O)N1CCc2cc(Br)cc(S(=O)(=O)NCCc3ccc(Cl)cc3)c21 | active: 45%
c1ccc(N2CCN(Cc3nnc(-c4ccc5c(c4)OCO5)o3)CC2)cc1 | inactive: 90%
CC(C)Oc1ccc(C(=O)NCc2cccnc2)cc1 | inactive: 70%
CCOC(=O)c1cc2c(=O)n3ccccc3nc2n(CCOC)c1=NC(=O)c1cc2ccccc2o1 | inactive: 58%
COc1ccc(C2=NS(=O)(=O)N(C)C(C(=O)Nc3ccc(OC(F)(F)F)cc3)=C2)cc1 | active: 48%
CN(Cc1ccccc1)S(=O)(=O)c1nnc(NC(=O)c2ccccc2Cl)s1 | active: 29%
CN1C(=O)c2ccccc2N(C)C1c1cccs1 (stereo unspecified) | inactive: 98%
Cc1nn(-c2ccc(N3CCCC3)nn2)c(C)c1CCC(=O)NCc1ccccc1 | inactive: 85%
COc1ccc(-c2nc3scc(CCNS(=O)(=O)c4c(C)cc(C)cc4C)n3n2)cc1OC | inactive: 85%
CCc1nn2c(=O)cc(COC(=O)c3ccc4c(c3)OCO4)nc2s1 | inactive: 76%
O=C(NCCn1cc(SCc2ccccc2)c2ccccc21)c1cccs1 | active: 54%
CCCc1cc(=O)[nH]c(Nc2ccccc2O)n1 | inactive: 67%
CCN(C(=O)c1ccc(Br)cc1)c1ccccc1 | inactive: 77%
Cc1cc(C)cc(C(=O)Nc2cccc(-c3nc4ncccc4o3)c2C)c1 | inactive: 75%
COc1ccccc1CNC(=O)CCCCn1c(=O)c2ccccc2n(Cc2ccccc2C)c1=O | inactive: 90%
CC(C)(C)C1CCc2c(sc(NC(=O)c3ccccc3F)c2C(=O)NCc2ccco2)C1 (stereo unspecified) | inactive: 61%
CC(=O)c1c(C)n(-c2ccc(Cl)cc2)c2ccc(OC(=O)COc3ccccc3)cc12 | inactive: 63%
COc1ccc(N2C(=O)CS(=O)(=O)C23C(=O)N(Cc2ccc(C)cc2)c2ccccc23)cc1Cl (stereo unspecified) | inactive: 80%
O=C(NCc1ccc(F)cc1)c1ccc2c(c1)nnn2C1CCCC1 | inactive: 134%

Structure (SMILES) | survival
CCOc1ccc(NC(=O)N2CCN(Cc3cc(=O)n4nc(-c5ccc(OC)cc5)sc4n3)CC2)cc1 | inactive: 90%
Cc1c(NC(=O)c2cc(-c3ccc(Cl)cc3)on2)c(=O)n(-c2ccccc2)n1C | inactive: 121%
CCOC(=O)c1[nH]c(C)c(CCC(=O)NCc2ccc(OC)cc2)c1C | inactive: 99%
Cc1cccc(NC(=O)Cn2c(=O)ccc3cc(S(=O)(=O)N4CCCC4)ccc32)c1C | inactive: 105%
CC(=O)c1ccc(NC(=O)C2CCC(CNS(=O)(=O)c3cccs3)CC2)cc1 (stereo unspecified) | inactive: 67%
COc1cccc(Cc2nc3ccccc3nc2SCC(=O)NCc2ccc(C)cc2)c1 | inactive: 76%
COc1ccc(CCNC(=O)c2ccc3c(c2)nc2n3CCC(C)C2)cc1OC (stereo unspecified) | inactive: 84%
CCOC(=O)c1noc2nc(C)n(Cc3cccc(C#N)c3)c(=O)c12 | inactive: 87%
COc1cccc(C(=O)NC(=S)NCc2ccco2)c1 | inactive: 93%
CCN(C(=O)Cn1cnc2onc(-c3ccc(F)cc3)c2c1=O)c1cc(C)ccc1C | inactive: 77%
CCn1c(C(=O)NCc2cc(Br)ccc2OC)cc2oc3ccccc3c21 | inactive: 67%
CC1=CC(C)(C)N(C(=O)Cc2ccccc2)c2ccccc21 | inactive: 115%
Cc1cccc(CCNC(=O)CN(c2ccc(C(C)C)cc2)S(=O)(=O)c2c(C)nn(C)c2C)c1 | inactive: 68%
Cc1ccc(NC(=O)N2CCN(c3cc(-c4noc(C)n4)ccc3C)CC2)c(C)c1 | inactive: 88%
Cc1ccccc1-c1nnc(SCC(=O)N(C)C2CCCCC2)o1 | inactive: 67%
CCNC(=O)c1ccc(CSc2nc3ccncc3n2Cc2ccc(F)cc2)cc1 | inactive: 91%
O=C(CN1C(=O)CSC1=O)Nc1cccc(Cl)c1 | inactive: 104%
COC(=O)C(C)n1cnc2sc3c(c2c1=O)CCCC3 (stereo unspecified) | inactive: 92%
COc1ccc(-c2ccc(NS(=O)(=O)c3cccc(C)c3)cc2)nn1 | inactive: 75%
COc1ccc(OCC(=O)NC2CC(=O)N(c3ccc4c(c3)OCCO4)C2)cc1 (stereo unspecified) | inactive: 67%
CCc1ccc(NS(=O)(=O)c2c(C)nc3sc(CC)nn3c2=O)cc1 | inactive: 72%
Cc1ccc(C)c(CN2C(=O)C3(c4ccccc42)N(c2ccc(Cl)cc2)C(=O)CS3(=O)=O)c1 (stereo unspecified) | inactive: 78%
